Results: the RNAGym collection of RNA variant scans (doi:10.7554/elife.90254)
The source gives no read counts; variants with many changes may rest on few reads.

B1: LINE1-mini (parent)
chain: GGCAGAGCUCAACACAGCGUGGCAAAGUGGCUGUGGCUAGACUGCC

Variants of: B1
Assay: self-cleavage, relative activity (ratio to wild type); higher = more cleavage; in vitro, sequencing; the parent is a self-cleaving ribozyme

Variant | self-cleavage
U9C C10A C15U | 0.03
G21U C23A G30A G33C | 0.13
A4C C10A G40A | 0.02
G7C C31A U32G A41U | 0.08
C3G A6G G30A C37A | 0.02
A16U U32G U34G A39G | 0
C18A G36U C37A C46U | 0.13
C15G C37U C46U | 0.01
U20C G21A C46U | 0.38
G7C U38A G40A G44A | 0.04
G5A G22C U34A G35U | 0.06
C10U G33A G40U | 0.05
C3G A12U A25C | 0.07
G2U G7C U20C U32G | 0.01
G7C A41G C45U | 0.02
C18U G19A U43A | 0.03
C37U C42U C46U | 0.08
U9C C18G C42U G44C | 0.02
U28G G33U G40A | 0.03
G1A G5A C10G G30U | 0.11
A14C C15A C18A G22A C31G G33C | 0.04
G1A A11G A12C A39C | 0.01
C3G G17C A41G C45A | 0.04
A6G U9G G22C G30A | 0.08

Variant | self-cleavage
C8A U9C U43A | 0.11
A14C G17U G30U U38G G40A G44U | 0.03
G2C U20A U43A | 0.06
G5A U20A G30U C46U | 0.03
C10A C31A C45A | 0.02
U20C C23U C45A | 0.06
A4U C18A G30A | 0.03
A11G A14G C15A G35U C42G | 0
U9A C15A G22A | 0.1
G29C U38C C42A C46G | 0
G17C C18A G22U A41G C42A | 0.08
C8A U20C G21A G30C U32A G44U C46U | 0.05
C10U A16U A24C | 0
G1U C10A A14U G22U | 0.02
G2A U20C G22C A24C | 0.09
G5A G7C C15U G36U C42G U43C | 0.11
C3U A12U G35A | 0.27
A4U C8A G19A | 0.65
A41G C42G U43A | 0.05
A6C A24U G40U | 0.34
A6U G21A A25C | 1.35
G5U A12C G17C U34C | 0.07
A14C G27C U28C A41U | 0.03
C13A G17C A25C G40A | 0.03

Variant | self-cleavage
C3U A4U C18A G29C C31A G33U U43A G44A | 0.02
U28A C31A A39U | 0.16
G29C U38G U43A | 0.02
A4U C10G U20A G21A | 0.04
C23U A24C U34A G35U | 0
C10U C15U A26G G29C G36A | 0.03
G2U A11G A24G U38G C42A | 0.01
A14U A24U U38G C45G | 0.03
U9A A14G A24C | 0.19
C3U U9A A11G C23A | 0.04
C13A C15G U43G G44A | 0.02
G1C G21C A25G G33A G35U C37A C46U | 0.01
G2U G19U U32A G40U | 0.01
C15A C23G G33A | 0.07
C18A G36U U38A G40C C45G | 0.01
G7U U32A C37G A39U | 0.03
G22A U32A G35C | 0.13
G19U G22A U28G | 0.18
G2U U9C C23U G29U G36U C45G | 0.04
C13U C42U C46A | 0.06
C13G A24C A41U G44C | 0.2
C8U U9A G22A | 0.03
A11U A16C G21A | 0.02
G17C C23G G30C | 0.03

Variant | self-cleavage
C13G U20C C23U C37U | 0.01
A16C G17C C18A U32A | 0.15
G36C C37A G44U | 0.1
G1U U9A C37U | 0.02
A14G G36A G40A | 0.09
G5C G17C G30U U32A | 0.03
A16C C23G U32G | 0.49
G17A C23U A39U | 0.1
C3U C10G C18U G21A C31U A39G | 0.01
A6C A25C G35U | 0.08
A12C G21A C45A | 0
C3U A24C G30C | 0.58
A16C A41G C45A | 0.05
A4U A11G A14U | 0.03
G19U U32G U43C | 0.01
C10G C18G G21U | 0.08
C8U A14C C31A U38C C45G | 0.11
C3A U32C C42G | 0.11
G2A C10U A12U A14C G21A U32A A41G | 0.07
U20G A25U C37A C45U | 0.02
C3A U9G A24G | 0.05
C8A G21C G33U C42U | 0.26
C18A G29C G33U G40U C46A | 0.01
A14C A25G G30A G36U | 0.05

Variant | self-cleavage
G1U C8G A26G | 0.01
G5C C18G C23G | 0.01
C18U G33U C45U | 0.02
C10A G30C U32C G35U | 0.02
A4C A11C G21C | 0.05
G7U C8A G29U | 0.19
G33U G35C G44U | 0.36
G22C C31U G44A | 0.08
G7U C23A U32C | 0.05
C3G C10G A14U A24C G30A | 0.01
A11U A26G G35U G36U A41G | 0
A6G C37G G40A | 0.05
A11C A12C G40U G44A | 0.01
C3A G5U U20C A26U | 0.11
C3G A16U C46A | 0.1
A12G C37G G44U C45G | 0.01
G7C C10A C15G C31U U34C A41G | 0.01
G1A C8A A11C G30U | 0.02
C3G G5A C8A G22A C46G | 0.12
A4G C10G C15G G27A A41G | 0.01
G1C G22A C37U C42A | 0.01
G2U C31G C46U | 0.02
A4G G7C A12G | 0.22
A6U C45U C46G | 0.62

Variant | self-cleavage
A25G G30C U32G G40U | 0
C18U U20A A39C G40A | 0.07
G5U G17C U38A C42A | 0.29
A4U A25C A26G C31G G40U | 0.03
A4U G19U G40A | 0.05
C8U A12C C15U | 0.14
G2C G17A G44C C45U | 0.02
G5A C13G U32A U38G | 0.02
U28G G33U U38G C42U | 0.14
A6G C10A G35U | 0.01
G1U C15G C31A | 0.02
G7A A12G G27A U34G G36A U38C C45U | 0.22
C8G A26G G29A | 0.04
C8A A24C G40A | 0.15
C10U G36C G44C | 0.03
G7C C23G G29A | 0.07
U9C A11U A26G | 0.06
C3U G5A A6U | 0.01
C3A A12C G17U G19A | 0.15
G19C C23G G30U C31A | 0.1
C15A U34G C42U | 0.04
G19C G21U G33C A39C | 0.12
C10G U28C G29U U34G | 0.03
C8U C23U G35A G36A G44A | 0.53

Variant | self-cleavage
G5C A12U C13G G22U U28G C46U | 0
U9G G21A C37U C42A C46A | 0.67
C13G C15A G17C G19A | 0.07
G21U G27C C42A | 0.04
C18A G27A C45U | 0.43
C8A A16G G19A G44C | 0.18
G7C A24C C45U | 0.03
A11C A25C G30A A41U C42A | 0.01
G1U A12G G21A A25G G33C | 0.01
G5C U9C A11G G21C A41C | 0.01
U9C C15U A25U A26U | 0.03
A6G C15U U28A | 0.02
A4G G7C G27A | 0.07
A4G A11G C15U C42U | 0.03
C8A U9C U28C U38C | 0.07
G1A A11C G17C A26U G35A C42U | 0.01
A6G C37A C46U | 0.38
A4G C8U A16G G29U G30U C31A | 0.15
G2C G7U G21C G33A | 0.05
U9A A12C G19A A26C G30U | 0.02
A4C C18A C31A G40A U43A | 0.17
C15A G21C C46U | 0.18
A4G G19C G21U | 0.2
